According to the supplement of paper PMC4604168 (melanoma cell lines):
The other results are listed elsewhere or left out. Repeats are few or missing, and single values can be far off.

Columns and labels:
Experiment in all cases: cell count relative to DMSO control; melanoma cells; higher = more viable cells
Conditions in all cases: library dose: low library concentration; 72 h
WM115 = tested on: WM115
WM1716 = tested on: WM1716
WM1745 = tested on: WM1745
WM3526 = tested on: WM3526
WM3619 = tested on: WM3619
WM451Lu = tested on: WM451Lu
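Also: cell number obtained by counting DAPI-stained nuclei in high-throughput microscope images with image analysis software, screen run in 1,536-well plates.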

| SMILES | cell count (WM115) | cell count (WM1716) | cell count (WM1745) | cell count (WM3526) | cell count (WM3619) | cell count (WM451Lu) |
| --- | --- | --- | --- | --- | --- | --- |
| Cc1cn(-c2cc(NC(=O)c3ccc(C)c(Nc4nccc(-c5cccnc5)n4)c3)cc(C(F)(F)F)c2)cn1 [nilotinib] + C[C@@H](N)c1ccc(C(=O)Nc2ccnc3[nH]ccc23)cc1 [RKI983] (first compound 0.2 µM, partner dose 0.4 µM) | 99.1% | 51% | 80.8% | 103% | 108% | 108% |
| Cn1c(=O)n(-c2ccc(C(C)(C)C#N)cc2)c2c3cc(-c4cnc5ccccc5c4)ccc3ncc21 + O=c1cc(-c2cccc3c2Sc2ccccc2S3)oc(N2CCOCC2)c1 [KU55933] (first compound 0.004 µM, partner dose 1 µM) | 93.9% | 85.9% | 91.5% | 73.2% | 74.7% | 108% |
| COc1ccc(C2=N[C@@H](c3ccc(Cl)cc3)[C@@H](c3ccc(Cl)cc3)N2C(=O)N2CCNC(=O)C2)c(OC(C)C)c1 [Nutlin-3] + OCCn1cc(-c2cnc3nnn(Cc4ccc5ncccc5c4)c3n2)cn1 [PF04217903] (first compound 0.1 µM, partner dose 1 µM) | 94.8% | 86.9% | 107% | 115% | 90.3% | 105% |
| CC(C)C[C@H](NC(=O)[C@H](Cc1ccccc1)NC(=O)c1cnccn1)B(O)O [Bortezomib] + COc1ccc(-c2ccc3c(N4CCOCC4)nc(N4C[C@@H](C)O[C@@H](C)C4)nc3n2)cc1CO [KU0063794] (first compound 0.001 µM, partner dose 0.02 µM) | 94.1% | 18% | 56% | 85.2% | 8.63% | 84.9% |
| Cc1cc(Nc2cc(N3CCN(C)CC3)nc(/C=C/c3ccccc3)n2)n[nH]1 + O=C(O)c1ccc(-c2c[nH]c3ncc(-c4ccccc4)cc23)cc1C1CCCC1 [GSK650394] (first compound 0.04 µM, partner dose 0.16 µM) | 91% | 92.8% | 107% | 88.9% | 99.7% | 75.7% |
| Cc1cc(Nc2cc(N3CCN(C)CC3)nc(/C=C/c3ccccc3)n2)n[nH]1 + Nc1ncn([C@H]2C[C@H](O)[C@@H](CO)O2)c(=O)n1 [decitabine] (first compound 0.04 µM, partner dose 0.1 µM) | 71% | 92.9% | 99.8% | 95.2% | 90.3% | 87.3% |
| Cc1cn(-c2cc(NC(=O)c3ccc(C)c(Nc4nccc(-c5cccnc5)n4)c3)cc(C(F)(F)F)c2)cn1 [nilotinib] + Cn1c(=O)n(-c2ccc(C(C)(C)C#N)cc2)c2c3cc(-c4cnc5ccccc5c4)ccc3ncc21 [NVP-BEZ235] (first compound 0.2 µM, partner dose 0.004 µM) | 115% | 95.4% | 98.3% | 104% | 91.1% | 108% |
| Cc1cn(-c2cc(NC(=O)c3ccc(C)c(Nc4nccc(-c5cccnc5)n4)c3)cc(C(F)(F)F)c2)cn1 [nilotinib] + NC(=O)c1ccc(N(C(N)=O)c2c(F)cccc2F)nc1-c1ccc(F)cc1F [VX702] (first compound 0.2 µM, partner dose 0.4 µM) | 97.9% | 105% | 97.6% | 92.9% | 98.6% | 89.8% |
| Cc1cc(Nc2cc(N3CCN(C)CC3)nc(/C=C/c3ccccc3)n2)n[nH]1 + O=C(Nc1cccc(Cl)c1)Nc1ncc(CCNc2ncnc3ccsc23)s1 [SNS314] (first compound 0.04 µM, partner dose 0.0008 µM) | 68.2% | 84.7% | 84.7% | 88.8% | 114% | 92.6% |
| Cn1c(=O)n(-c2ccc(C(C)(C)C#N)cc2)c2c3cc(-c4cnc5ccccc5c4)ccc3ncc21 + C#Cc1cccc(Nc2ncnc3cc(OCCOC)c(OCCOC)cc23)c1 [erlotinib] (first compound 0.004 µM, partner dose 0.8 µM) | 91.9% | 82.2% | 82.8% | 71% | 87.8% | 84.3% |
| CC(C)C[C@H](NC(=O)[C@H](Cc1ccccc1)NC(=O)c1cnccn1)B(O)O [Bortezomib] + Cc1ccc(NC(=O)c2cccc(N(C)C)c2)cc1NC(=O)c1ccc(O)cc1 [ZM336372] (first compound 0.001 µM, partner dose 2 µM) | 106% | 33.7% | 50.9% | 84% | 14.1% | 91.7% |
| Cn1c(=O)n(-c2ccc(C(C)(C)C#N)cc2)c2c3cc(-c4cnc5ccccc5c4)ccc3ncc21 + O=C(O)c1ccc(-c2c[nH]c3ncc(-c4ccccc4)cc23)cc1C1CCCC1 [GSK650394] (first compound 0.004 µM, partner dose 0.16 µM) | 89.4% | 89.6% | 91.7% | 94.3% | 83.3% | 119% |
